# Out of some 370,000 compounds screened, about 150 (0.041%) were called active. This list was built around the results that the source calls inconclusive (neither active nor inactive); the mix of calls is not that of the screen. Calls follow the shape of the dose curve; as a rule, active = well fitted inhibition curve with a large enough effect; inconclusive = small, poorly fitted or top-dose-only effect; inactive = flat fitted curve, though single readings scatter. No potency is given beside an inconclusive call; the fits are too rough.
# Target: Beta-lactamase (Escherichia coli (strain K12)) (UniProt P00811)
# Chain of UniProt P00811 (P00811 whole entry, looked up): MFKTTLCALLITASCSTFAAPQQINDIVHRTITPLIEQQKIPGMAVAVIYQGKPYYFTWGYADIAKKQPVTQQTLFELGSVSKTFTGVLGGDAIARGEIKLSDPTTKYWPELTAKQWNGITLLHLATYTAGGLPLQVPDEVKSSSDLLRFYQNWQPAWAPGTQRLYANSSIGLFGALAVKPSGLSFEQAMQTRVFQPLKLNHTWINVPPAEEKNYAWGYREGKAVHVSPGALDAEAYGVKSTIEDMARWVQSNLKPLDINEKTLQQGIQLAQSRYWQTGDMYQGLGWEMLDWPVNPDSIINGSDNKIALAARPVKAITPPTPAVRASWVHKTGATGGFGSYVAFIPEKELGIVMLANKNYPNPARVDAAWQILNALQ
# Experiment: qHTS Inhibitors of AmpC Beta-Lactamase (assay with detergent); also: nearly all actives have a fitted effect of over 25% in size
# Conditions: AmpC hydrolysis of nitrocefin, absorbance 480 nm, 0.01% Triton; series mostly up to 114 µM
# Procedure, shortened: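 20 mM phosphate pH 7.0 + 0.01% (detergent screen) or 0.0001% Triton X-100; 5.3 nM AmpC reagent; cpd preinc 15 min RT; nitrocefin (800 uM stock) to start; A480 q20 s × 4 min; Activity was normalised to no-enzyme and no-compound control wells.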
# Potency is read from the fitted curve at half-maximal effect; tags tell the direction and shape of the fitted curve.
row,Structure (SMILES),Potency
1,O=C1NC(=O)C(Cc2c[nH]c3ccccc23)N1 (configuration not stated),"inconclusive [inhibitor, partial curve, poor fit]"
2,N#CCCn1cc(/C=C2\NC(=S)N(c3ccccc3)C2=O)c(-c2ccc(-c3ccccc3)cc2)n1,inactive
3,CC(C)C(=O)Nc1ccc(C(=O)NNC(=O)c2cccs2)cc1,"inconclusive [inhibitor, full curve]"
4,CCCN(Cc1nnc(-c2ccccc2Cl)o1)C(=O)c1cc(S(=O)(=O)N2CCOCC2)ccc1F,inactive
5,NS(=O)(=O)c1ccc(CCNC(=O)CNCCc2ccc(C(F)(F)F)cc2)cc1,inactive
6,Cc1cccc(N2CCN(C(=O)C3CCCN(S(=O)(=O)c4ccc(Br)s4)C3)CC2)c1C (configuration not stated),inactive
7,CCN1CCN(C(=S)Nc2ccsc2C(=O)OC)CC1,inactive
8,CCOC(=O)C1CCCN(C2CC(=O)N(c3ccc(NC(C)=O)cc3)C2=O)C1 (configuration not stated),inactive
9,CCc1ccccc1NC(=O)CN(C)C(=O)COC(=O)c1ccccc1Cl,"inconclusive [inhibitor, full curve, poor fit]"
10,CCOc1ccc(CNC(=O)c2cnc3sc(N4CCOCC4)nn3c2=O)cc1OC,inactive
11,c1cnc(N2CCN(c3ncnc4c3oc3ccccc34)CC2)nc1,"inconclusive [inhibitor, partial curve, poor fit]"
12,O=C(Nc1cccc(C(F)(F)F)c1)c1cccnc1N1CCOCC1,"inconclusive [inhibitor, full curve, poor fit]"
13,CCOc1ccc(CCNC(=O)C2CCCN(S(C)(=O)=O)C2)cc1OCC (configuration not stated),"inconclusive [inhibitor, full curve, poor fit]"
14,COc1ccc2nc(COC(=O)c3ccco3)c(C(C)=O)[n+]([O-])c2c1,"inconclusive [inhibitor, full curve, poor fit]"
15,Brc1ccc(OCc2cn3ccccc3n2)cc1,inactive
16,COc1ccc2oc(C(=O)Nc3ccc(N4CCOCC4)cc3)c(C)c2c1,"inconclusive [inhibitor, full curve, poor fit]"
17,CCc1ccc(OCC(=O)N(Cc2ccccc2)C2CCS(=O)(=O)C2)cc1 (configuration not stated),"inconclusive [inhibitor, full curve, poor fit]"
18,O=[N+]([O-])c1ccc2c(c1)ncn2-c1ccccc1,"inconclusive [inhibitor, full curve]"
19,CN(C)C(=O)COc1ccc2c3c(c(=O)oc2c1)CCCC3,"inconclusive [inhibitor, full curve, poor fit]"
20,COc1ccc(CCNS(=O)(=O)c2cn(C)c(=O)n(C)c2=O)cc1OC,"inconclusive [inhibitor, partial curve, poor fit]"
21,O=c1[nH]c2ccc(NC(=S)NCc3ccccc3)cc2[nH]1,"inconclusive [inhibitor, single point]"
22,S=C(NCCC(c1ccccc1)c1ccccc1)Nc1ccccc1Cl,inactive
23,Cc1cc(NC(=O)c2cccs2)no1,"inconclusive [inhibitor, single point]"

row,Structure (SMILES),Potency
1,C/C(=N\O)C(=O)NCCN1CCCCC1,"inconclusive [inhibitor, full curve, poor fit]"
2,Cc1nn(Cc2ccccc2)c(Cl)c1C(=O)OC(C)C(=O)Nc1ccc(F)cc1Cl (configuration not stated),inactive
3,CN(c1nc2c(c(=O)n(C)c(=O)n2C)n1CC(=O)c1ccccc1)C1CCCCC1,"inconclusive [inhibitor, partial curve, poor fit]"
4,O=C(Nc1cccnc1)c1ccc(CSc2ccccc2)cc1,inactive
5,Cc1[nH]c2ccccc2c1C(=O)Cn1c(=O)oc2ccccc21,"inconclusive [inhibitor, single point]"
6,O=C(CSCc1c(Cl)cccc1Cl)NN1C(=O)c2ccccc2C1=O,"inconclusive [inhibitor, single point]"
7,Cc1c(S(=O)(=O)N2CCCC(C)C2)c(=O)n(C)c(=O)n1C (configuration not stated),"inconclusive [inhibitor, full curve, poor fit]"
8,NC1=NC[C@H](Cc2ccccc2)N1CCCCC1CCCCC1,inactive
9,CN(C)S(=O)(=O)c1cccc(NC(=O)COC(=O)CCOc2ccccc2)c1,"inconclusive [inhibitor, full curve, poor fit]"
10,COc1ccccc1/C=C/C(=O)Nc1cccc(S(=O)(=O)NC2=NCCCCC2)c1,inactive
11,Cc1ccc(S(=O)(=O)N2CCOCC2)cc1NC(=O)COc1ccc(C(=O)c2ccccc2)cc1,"inconclusive [inhibitor, partial curve, poor fit]"
12,Cc1cc(C)[n+](-c2ccc(F)cc2)c2[nH]c(=O)[nH]c(=O)c12,"inconclusive [inhibitor, partial curve]"
13,Cc1ccc(C(=O)N2Cc3ccccc3CC2C(=O)O)cc1 (configuration not stated),"inconclusive [inhibitor, full curve, poor fit]"
14,CCCCN(CCCC)c1cc(C)nc(-c2ccccc2O)n1,inactive
15,Cc1ccc(C(=O)COC(=O)c2ccc(Br)o2)cc1C,"inconclusive [inhibitor, full curve, poor fit]"
16,Cn1c(=O)c2c(SCC(=O)NCc3ccco3)nc(-c3cccc(F)c3)nc2n(C)c1=O,inactive
17,CC(C)c1ccc(S(=O)(=O)N2CCN(C(=O)c3cc([N+](=O)[O-])ccc3N3CCOCC3)CC2)cc1,"inconclusive [inhibitor, full curve, poor fit]"
18,COc1ccc(CCNC(=O)CSc2nc(O)c(CC(C)C)c(=O)[nH]2)cc1OC,"inconclusive [inhibitor, partial curve, poor fit]"
19,CN(CCC1CCOCC1)C(=O)CC1C(=O)NCCN1Cc1c(F)cccc1Cl (configuration not stated),"inconclusive [inhibitor, single point]"
20,COc1ccc(Nc2nc(OC)nc(N3CCOCC3)n2)cc1,inactive
21,COc1cc(Nc2nc3ccccc3n3nnnc23)cc(OC)c1OC,"inconclusive [inhibitor, full curve, poor fit]"
22,NS(=O)(=O)c1ccc(CCNC(=O)c2ccc3nc(CCc4ccccc4)oc3c2)cc1,inactive
23,C[C@]12CCC3[C@@H](CC[C@@H]4C[C@H](O)CC[C@]34C)[C@@H]1CCC2=O (some centres not stated),"inconclusive [inhibitor, full curve, poor fit]"

row,Structure (SMILES),Potency
1,O=Cc1cn(CCC(=O)O)nc1-c1cccc(Cl)c1,"inconclusive [inhibitor, single point]"
2,Cc1cc(NC(=O)CSc2nc(-c3cccnc3)ccc2C#N)no1,"inconclusive [inhibitor, partial curve]"
3,Cc1cc(C)n(C2CC(=O)N(c3ccccc3)C2=O)n1 (configuration not stated),"inconclusive [inhibitor, full curve, poor fit]"
4,O=c1sc2ccccc2n1COc1ccccc1,"inconclusive [inhibitor, full curve]"
5,CCOC(=O)C1CCN(C(=O)CN(Cc2ccccc2)S(C)(=O)=O)CC1,inactive
6,O=C(NCC(=O)N(Cc1ccco1)C(C(=O)NC1CCCC1)c1cccnc1)c1cccs1 (configuration not stated),"inconclusive [inhibitor, full curve, poor fit]"
7,COc1cc(Cl)cc(C=O)c1OCC(=O)O,inactive
8,COc1cccc(C(=O)N2CCN(C(=O)c3cccc4ccccc34)CC2)c1OC,"inconclusive [inhibitor, full curve, poor fit]"
9,Cc1ccccc1CNC(=O)c1cccc(NC(=O)N2CCSc3ncccc32)c1,inactive
10,COC(=O)C(CCSC)NC(=O)C12CC3CC(CC(C3)C1)C2 (configuration not stated),"inconclusive [inhibitor, full curve, poor fit]"
11,Cc1ccc(NC(=O)Cc2nc(COC(=O)Cc3cccc(C(F)(F)F)c3)cs2)cc1,"inconclusive [inhibitor, full curve, poor fit]"
12,C=CCNC(=O)C1CC1(c1ccc(C)cc1)c1ccc(C)cc1 (configuration not stated),"inconclusive [inhibitor, partial curve, poor fit]"
13,CN1CCN(NC(=O)c2cc(-c3cccc(Cl)c3)nc3ccccc23)CC1,inactive
14,CN(CC1CCCN(CCc2ccccc2F)C1)C(=O)c1ccoc1 (configuration not stated),"inconclusive [inhibitor, single point]"
15,COCCN(C(=O)C1CC(=O)N(Cc2ccccc2)C1)c1nc(-c2ccc([N+](=O)[O-])cc2)cs1 (configuration not stated),"inconclusive [inhibitor, full curve, poor fit]"
16,CN(c1ccc(C(=O)Nc2ccccc2C(F)(F)F)cc1)S(C)(=O)=O,"inconclusive [inhibitor, single point]"
17,CC(=O)[C@@]1(O)CC[C@H]2[C@@H]3C[C@H](C)C4=CC(=O)CC[C@]4(C)[C@H]3CC[C@@]21C,"inconclusive [inhibitor, partial curve, poor fit]"
18,COCCn1c(=NC(=O)c2ccc(S(=O)(=O)N3CCOCC3)cc2)sc2cc(S(N)(=O)=O)ccc21,"inconclusive [inhibitor, full curve, poor fit]"
19,CCc1ccc(OCC(=O)NNC(=O)Cc2ccc(S(=O)(=O)N3CCOCC3)s2)cc1,"inconclusive [inhibitor, single point]"
20,COc1ccccc1CNC(=O)CSc1nc2nc(C)c(Cc3ccccc3Cl)c(C)n2n1,inactive
21,CCC(NC(=O)c1ccncc1)c1ccccc1 (configuration not stated),inactive

# — PubChem BioAssay AID485294 (National Center for Advancing Translational Sciences (NCATS), 2010)
